Reference: publication PMC6212790
The list shows a part of the results. At the low end of the ranking, values are background and their order means little.

Each sequence was assayed against T1, GST-Rok (full length) (UniProt O34857) (assay: protein binding microarray). Conditions: Rok is a gene silencer of Bacillus subtilis; high values mean tight binding; most listed sequences are background and not binding sites; double strand, one strand shown.
T1 sequence: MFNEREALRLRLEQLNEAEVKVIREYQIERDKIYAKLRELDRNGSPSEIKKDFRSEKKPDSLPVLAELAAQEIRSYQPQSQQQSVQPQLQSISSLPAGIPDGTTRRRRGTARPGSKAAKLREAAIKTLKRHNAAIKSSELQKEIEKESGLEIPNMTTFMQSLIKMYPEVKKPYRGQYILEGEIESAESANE
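Further: rank score from −0.5 (least bound) to 0.5 (best bound).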

| Sequence | binding signal |
| --- | --- |
| ATGTGCGA | -0.00406 E-score |
| CTAGTACA | 0.291 E-score |
| GACACGGC | -0.102 E-score |
| TATTTTGA | 0.267 E-score |
| CACTCACC | 0.177 E-score |
| AGCAAGGG | -0.209 E-score |
| CGGGTTCA | -0.29 E-score |
| ATCGGACA | 0.0141 E-score |
| ACCAGGAT | -0.148 E-score |
| AGCTAGCA | 0.204 E-score |
| ACAGTCCG | -0.114 E-score |
| GTAGGCCA | 0.0362 E-score |
| CAGGGTTC | -0.172 E-score |
| GTCTACAC | -0.0482 E-score |
| CTGGCATC | -0.116 E-score |
| AGGACAGA | -0.147 E-score |
| TGATAGAA | 0.388 E-score |
| CGCACGCA | -0.227 E-score |
| GTCGCGAC | -0.0623 E-score |
| CGCTGTAA | 0.112 E-score |
| AACGCCCG | -0.18 E-score |
| AAATTCGG | 0.0315 E-score |
| ATCTATAA | 0.307 E-score |
| GTCCAGTA | 0.115 E-score |
| ATAGATCG | 0.138 E-score |

| Sequence | binding signal |
| --- | --- |
| ACGTGTAC | -0.0515 E-score |
| GGCGATTA | 0.00681 E-score |
| ACGGAACA | -0.0853 E-score |
| GGAGGTAC | 0.04 E-score |
| AACGGATA | 0.0821 E-score |
| CAAATAAG | -0.0595 E-score |
| CGCCGTTA | -0.0867 E-score |
| ACACATAC | 0.248 E-score |
| CTTCATGA | -0.197 E-score |
| CACTCCTA | 0.0224 E-score |
| ATCAGTTG | 0.124 E-score |
| GATTAGAA | -0.0372 E-score |
| CACGCAAG | -0.208 E-score |
| ACCGAGGA | -0.292 E-score |
| GCCGGTTA | -0.184 E-score |
| ACCATCAT | -0.0574 E-score |
| AACCGCTG | -0.326 E-score |
| ACACAGTG | 0.151 E-score |
| CTCTTGAA | -0.306 E-score |
| ACGCGAGG | -0.139 E-score |
| CGCACGAA | -0.00623 E-score |
| ACATTGTC | -0.0121 E-score |
| AGGTGAAG | -0.0865 E-score |
| TCAATTCA | 0.0998 E-score |
| AACGATAG | 0.224 E-score |

| Sequence | binding signal |
| --- | --- |
| AGAGATAG | 0.112 E-score |
| CATACCGG | 0.00723 E-score |
| CAGGAAAA | -0.0418 E-score |
| GCCTTAAA | -0.232 E-score |
| CAATGCAC | 0.0285 E-score |
| AAGTCTGT | -0.0469 E-score |
| AAAAAGGC | -0.0191 E-score |
| AGATTGAA | 0.0809 E-score |
| ACCTATAC | 0.266 E-score |
| TCTTTCAA | -0.0586 E-score |
| CCGGCCAG | -0.278 E-score |
| GAGCGATA | 0.0162 E-score |
| TGTGATAA | 0.153 E-score |
| AGGAGAGG | -0.177 E-score |
| GCCCTCCC | -0.391 E-score |
| AAGATTAA | 0.221 E-score |
| CGCGCACC | -0.235 E-score |
| CAAGCAAC | -0.165 E-score |
| CCATCGGC | -0.173 E-score |
| AACGGGCG | -0.0452 E-score |
| CGCCGGTC | -0.208 E-score |
| CACGCTTA | -0.0251 E-score |
| AGGGGTAT | -0.14 E-score |
| ACACATCG | -0.0192 E-score |
| CTTCCTCA | -0.215 E-score |

| Sequence | binding signal |
| --- | --- |
| CAGATTCG | 0.0798 E-score |
| CCGACCCC | -0.485 E-score |
| CGGCAGTC | -0.237 E-score |
| TCGCGACA | -0.172 E-score |
| TAGCTATA | 0.346 E-score |
| AAGATATA | 0.313 E-score |
| CGTGCCCC | -0.303 E-score |
| GAGATAAC | 0.228 E-score |
| GTGTACGA | 0.0388 E-score |
| TCTTGTAA | 0.0517 E-score |
| AGCCATCG | -0.115 E-score |
| AGGCCCTC | -0.392 E-score |
| TATATGAA | 0.262 E-score |
| GCCTGGAA | -0.142 E-score |
| AGAAGACC | -0.3 E-score |
| CTATTTGC | 0.129 E-score |
| AACGCACA | -0.0514 E-score |
| AAGCCCTA | -0.226 E-score |
| AACCTGTA | 0.128 E-score |
| AGTGCGGG | -0.138 E-score |
| CGCGGGAC | -0.416 E-score |
| ATCGTCTA | 0.134 E-score |
| CCGTCACG | -0.0865 E-score |
| CTGCTTGC | -0.129 E-score |
| AATTACTC | 0.26 E-score |

| Sequence | binding signal |
| --- | --- |
| AAGCCTGC | -0.315 E-score |
| AGTATAAG | 0.239 E-score |
| ACTTGAGG | -0.00692 E-score |
| TGTCTTAA | 0.00769 E-score |
| CCGAGCCA | -0.164 E-score |
| ACCTTCGG | -0.234 E-score |
| GCCCACGC | -0.27 E-score |
| GTTCGTAA | 0.034 E-score |
| AGTTAACG | 0.254 E-score |
| CATAATCA | 0.164 E-score |
| CCAGGCGA | -0.177 E-score |
| TCATACCA | 0.0971 E-score |
| ACGACCCT | -0.215 E-score |
| ATTTCGCG | 0.118 E-score |
| GCATGTAC | 0.0911 E-score |
| AGCCGGTA | -0.082 E-score |
| AACCGTGC | -0.179 E-score |
| AGGTTTTA | 0.0648 E-score |
| GACTGGAC | -0.134 E-score |
| TGTAGCAA | 0.217 E-score |
| AGGGTGTA | -0.0212 E-score |
| TAGATGCA | 0.191 E-score |
| ACGGACCC | -0.272 E-score |
| AGCTCGGA | -0.0137 E-score |
| AAGAATGG | -0.00549 E-score |

| Sequence | binding signal |
| --- | --- |
| TAATGAAA | 0.0595 E-score |
| CTCATCGA | -0.105 E-score |
| CAGTGTGA | -0.0699 E-score |
| AAGCATTC | -0.0228 E-score |
| CGATTGAG | -0.101 E-score |
| CAACGGGA | 0.123 E-score |
| AGAGGTCG | -0.15 E-score |
| TACATGTA | 0.339 E-score |
| CTTTGATA | 0.204 E-score |
| GGCCGCAC | -0.38 E-score |
| TGGCTCAA | -0.0301 E-score |
| AAATTACC | 0.347 E-score |
| AATGTGTG | 0.109 E-score |
| CTTGAGCA | -0.235 E-score |
| ATCTATCC | 0.128 E-score |
| ATTCCGTA | 0.309 E-score |
| CCGCGTTA | -0.126 E-score |
| GTCTTTAA | -0.0393 E-score |
| AGGGTGTG | -0.159 E-score |
| CTCCGAGA | -0.1 E-score |
| AGTCCTCG | -0.106 E-score |
| CCGCCTAA | -0.174 E-score |
| ACTTCCCC | -0.134 E-score |
| ATACTTAG | 0.18 E-score |
| AAACCTGT | 0.0297 E-score |

| Sequence | binding signal |
| --- | --- |
| CCCCATCA | -0.243 E-score |
| TTCATGAA | -0.0905 E-score |
| GACGCAGC | -0.273 E-score |
| CATGTCAG | 0.061 E-score |
| CAGTATGG | -0.0566 E-score |
| CAAAAAAG | -0.124 E-score |
| TATTGCCA | 0.196 E-score |
| CATTCGAG | -0.109 E-score |
| CTATCAAG | 0.126 E-score |
| ATCTTACG | 0.21 E-score |
| ATTTCGCA | 0.252 E-score |
| CGAAGTGC | -0.268 E-score |
| AGAATACG | 0.0996 E-score |
| CCTGCAAA | -0.218 E-score |
| CGTAACTC | -0.000639 E-score |
| CCGGTCTC | -0.121 E-score |
| AAGAATAT | 0.173 E-score |
| GGTCGCAA | 0.0661 E-score |
| AAATCCAT | 0.193 E-score |
| ATAACTTG | 0.289 E-score |
| CCGACCTC | -0.334 E-score |
| CGAAATTA | 0.269 E-score |
